In all, about 33,000 sequences were measured (“E-score (-0.5 to 0.5)”: median about -0.021, highest 2% from about 0.32 on). The list shows a part of the results.

The test concerns the target T1, Zap1 (UniProt P47043).
T1 sequence: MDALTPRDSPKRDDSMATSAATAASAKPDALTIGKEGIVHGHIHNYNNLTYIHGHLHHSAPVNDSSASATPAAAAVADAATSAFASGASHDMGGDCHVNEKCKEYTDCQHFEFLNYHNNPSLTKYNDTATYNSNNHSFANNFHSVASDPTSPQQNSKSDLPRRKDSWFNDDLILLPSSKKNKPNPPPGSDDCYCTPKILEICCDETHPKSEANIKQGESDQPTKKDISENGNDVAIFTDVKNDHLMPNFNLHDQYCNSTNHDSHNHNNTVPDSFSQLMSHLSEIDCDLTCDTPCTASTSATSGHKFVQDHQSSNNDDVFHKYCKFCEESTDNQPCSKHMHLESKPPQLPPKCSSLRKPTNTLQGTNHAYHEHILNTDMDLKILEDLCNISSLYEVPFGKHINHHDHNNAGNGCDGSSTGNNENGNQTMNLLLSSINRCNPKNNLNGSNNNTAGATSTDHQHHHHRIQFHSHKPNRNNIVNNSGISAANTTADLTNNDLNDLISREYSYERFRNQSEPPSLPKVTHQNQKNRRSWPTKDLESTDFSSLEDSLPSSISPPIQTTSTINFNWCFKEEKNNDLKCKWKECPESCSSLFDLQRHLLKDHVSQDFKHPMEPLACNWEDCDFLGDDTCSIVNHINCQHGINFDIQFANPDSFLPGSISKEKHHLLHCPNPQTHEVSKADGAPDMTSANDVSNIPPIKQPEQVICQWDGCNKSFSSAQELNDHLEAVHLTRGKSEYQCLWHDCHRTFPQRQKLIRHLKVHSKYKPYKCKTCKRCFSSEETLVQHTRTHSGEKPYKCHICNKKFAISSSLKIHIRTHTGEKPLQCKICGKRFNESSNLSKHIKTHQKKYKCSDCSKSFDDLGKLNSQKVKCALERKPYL
In words: PBM E-score (8-mer binding enrichment) (E-score (-0.5 to 0.5)); higher = stronger / more preferred TF binding; most listed sequences are background and not binding sites. To be noted: protein concentration: 200 nM; construct: GST-full length. The method, boiled down: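 Yeast transcription factors, full-length or as DNA-binding domains, were expressed with a GST tag using PURExpress in vitro transcription/translation. At about 100-200 nM they were applied to universal all-10-mer Agilent arrays, double-stranded by primer extension on fresh or once-stripped slides. Fluorescent anti-GST detected bound protein, and masliner normalised the scans. E-scores for ungapped eight-base words, pooled with reverse complements, came from the Universal PBM Analysis Suite.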
As to AGACTAGA, the “PBM E-score” value is -0.125.

As for TGTTGTAA, the “PBM E-score” value is 0.159. In the case of ACACCAAC, the “PBM E-score” value is 0.0702. As for GGTCCGAA, the “PBM E-score” value was determined as 0.123.

With ACGCTACA, the “PBM E-score” value is -0.022. On to GCGGAACC, for which the “PBM E-score” value came to 0.274. For the sequence CCCGAGTC, the “PBM E-score” value stood at 0.0118. Next, CCGCGCCG: 0.0339; ATGATGCG: -0.0528; CAACGTGA: -0.0407. Next, TACGTTCA: 0.0801; AATCCTTC: -0.218; CACACCAC: 0.195. As to GTTTGTTA, the “PBM E-score” value came out at 0.131. As for ATGCGCGG, the “PBM E-score” value was -0.0462. Next, AAACTGCG: -0.0606; ATTGATCG: 0.0326; ATGGCAGA: -0.0886. Regarding CTAGTACC, the “PBM E-score” value was found to be 0.0962. Next, ACGAGAAG: -0.0992; GTAGGATA: -0.116; AATCCACG: 0.006. Next, ATGAAGTC: -0.169; TAAGCATA: 0.0573; AATATAAC: 0.218. For the sequence AAATGGTT, the “PBM E-score” value was 0.298. Next, CGCCCGAC: -0.0796; CAGTCCAA: -0.103; ACACGAGA: 0.0148. Next, ATGGGCCA: 0.0896; CATACTCG: -0.0343; AGACAGCA: -0.0987.

ACCGAAAG: the “PBM E-score” value is 0.117. Turning to AAGTGTTA, the “PBM E-score” value is 0.096. Next, TACTACAA: 0.126; AGCGGACA: 0.0351. In the case of ACATAAAC, the “PBM E-score” value is 0.211.

As for TCGCCAGA, the “PBM E-score” value is -0.112.

Consider ATTAACGC, for which the “PBM E-score” value was -0.124. Next, AATAAACC: 0.154.

Turning to CTACTCGA, the “PBM E-score” value is -0.105. On to AATTAGCA, for which the “PBM E-score” value was -0.00754. Next, TCACCGAA: 0.181; ACGTGATA: -0.139. For AAAAAAGA, the “PBM E-score” value turned out to be 0.207. Next, AGTCGACG: 0.0342; GCCGTGAA: 0.0645. Next, TGGCGCAA: -0.0873; ATTAACTC: 0.0519. Next, AGAGCACC: -0.0101; GGTGTCTA: 0.0852; AGATTAAG: 0.0817. GGGTGAAA: the “PBM E-score” value was 0.208. With AGGGTAGC, the “PBM E-score” value is 0.313. In the case of ATATCTCG, the “PBM E-score” value was 0.00536. Next, CATGCGTC: -0.256; AGCCGAGC: -0.27; GAGCGAAC: -0.268. Next, GAGCGTCA: -0.17. Next, CGGTATGA: 0.0503; TCAATACA: 0.196; AGCGAGTG: -0.0427.

In the case of AAGAGTCA, the “PBM E-score” value was found to be 0.0989.

For AATGAAAG, the “PBM E-score” value is 0.0755.

For the sequence ATAACACC, the “PBM E-score” value is 0.137.

Take GTGTGCTA: the “PBM E-score” value is 0.0307. Next, CGTACGGA: 0.00356; ACTATACC: 0.228.

As to AAGTTACT, the “PBM E-score” value is -0.0263. As for GTTGACCA, the “PBM E-score” value amounted to 0.177. For the sequence CCTAGAGG, the “PBM E-score” value turned out to be 0.366. As to ATAAGCAG, the “PBM E-score” value was -0.0311.

With ACCCGGGC, the “PBM E-score” value was found to be 0.0212. As to GCACGTCC, the “PBM E-score” value was -0.136. Next, ATCCTCGC: -0.0781; CGCGCGCA: 0.18. Next, AACGGGAC: -0.179. Next, TGTTCTAA: 0.18. Take CACCCCGA: the “PBM E-score” value was found to be 0.0683. Consider ATTTAAAG, for which the “PBM E-score” value stood at 0.121.

AATAAGGA: the “PBM E-score” value is -0.00733. Next, AGTTGGCA: -0.0991.

Consider ACTTCACT, for which the “PBM E-score” value is -0.144. Next, GCAATGAA: -0.0227. GTGATAGA: the “PBM E-score” value turned out to be 0.0338. Next, GCGGAAGC: -0.111.
